Results on 45 molecules are retold here after paper PMC4336329 (PLoS ONE, 2015).

Out of some 310,000 compounds screened, about 14,000 (4.5%) showed an effect of 50% or more. The effect is printed as a negative number. This is one part of the list.
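Also: peak tail current of the secondary pulse compared with the same well before compound.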

The target of this assay is human ether-à-go-go-related gene (hERG) potassium channel (human, UniProt Q12809). In words: primary screen, population patch clamp on CHO cells stably expressing hERG.
Chain of human ether-à-go-go-related gene (hERG) potassium channel (Q12809 whole entry, looked up): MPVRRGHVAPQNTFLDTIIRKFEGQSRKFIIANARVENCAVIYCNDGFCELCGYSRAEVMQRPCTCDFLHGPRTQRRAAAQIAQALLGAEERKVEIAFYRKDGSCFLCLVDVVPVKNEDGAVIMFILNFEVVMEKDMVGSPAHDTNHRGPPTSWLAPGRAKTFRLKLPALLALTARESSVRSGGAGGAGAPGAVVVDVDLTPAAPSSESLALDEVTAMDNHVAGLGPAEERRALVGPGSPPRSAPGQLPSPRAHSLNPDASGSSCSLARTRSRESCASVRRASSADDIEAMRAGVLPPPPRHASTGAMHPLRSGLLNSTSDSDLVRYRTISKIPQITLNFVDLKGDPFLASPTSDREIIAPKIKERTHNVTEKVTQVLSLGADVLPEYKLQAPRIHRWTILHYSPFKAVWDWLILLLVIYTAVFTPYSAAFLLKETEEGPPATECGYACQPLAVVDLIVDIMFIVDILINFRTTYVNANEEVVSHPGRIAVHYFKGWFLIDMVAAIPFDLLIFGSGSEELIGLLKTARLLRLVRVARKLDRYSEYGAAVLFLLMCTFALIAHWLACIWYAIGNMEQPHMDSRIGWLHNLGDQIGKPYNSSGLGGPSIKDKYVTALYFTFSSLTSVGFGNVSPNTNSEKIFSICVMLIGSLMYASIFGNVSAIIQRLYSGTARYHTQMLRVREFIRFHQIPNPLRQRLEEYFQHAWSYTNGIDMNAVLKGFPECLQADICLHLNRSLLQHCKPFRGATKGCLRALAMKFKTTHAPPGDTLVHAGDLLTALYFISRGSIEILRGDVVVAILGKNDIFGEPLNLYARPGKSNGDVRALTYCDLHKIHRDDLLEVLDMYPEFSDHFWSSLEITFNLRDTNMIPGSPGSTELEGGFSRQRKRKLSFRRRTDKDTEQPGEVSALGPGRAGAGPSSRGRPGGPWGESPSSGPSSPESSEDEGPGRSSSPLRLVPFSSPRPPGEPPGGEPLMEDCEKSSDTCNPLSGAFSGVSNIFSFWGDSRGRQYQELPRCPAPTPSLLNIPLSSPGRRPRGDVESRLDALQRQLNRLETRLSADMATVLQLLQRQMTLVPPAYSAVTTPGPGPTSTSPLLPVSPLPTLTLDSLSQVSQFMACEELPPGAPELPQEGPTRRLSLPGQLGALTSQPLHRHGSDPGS
On to `Cc1nc2nc(C)c(CCC(=O)O)c(C)n2n1`, for which the “hERG current change (%, negative = inhibition) at 10uM” value is 8.07%.
Take `COc1ccc(CN2CCCC(CNC(=O)c3ccc(F)cc3)C2)c(F)c1` (stereo not drawn): the “hERG current change (%, negative = inhibition) at 10uM” value is listed as -75.4%.
The value for `CCN(CC)c1ccc(/C=N/OCC(=O)Nc2cccc(C)c2)cc1` was -2.16%.
Consider `Cl.O=C(CN1CCCC1)Nc1cccc(Cl)c1`, for which the “hERG current change (%, negative = inhibition) at 10uM” value was -3.66%.
Under `O=C(Cc1cccs1)Nc1ccc(F)cc1` stands 10%; under `COC(=O)c1ccccc1NC(=O)c1ccc2c(c1)CC(C)O2` (stereo not drawn), 0.94%; under `COc1ccc(C(O)P(=O)(OC(C)C)OC(C)C)cc1` (stereo not drawn), 13.7%.
Regarding `Cc1nnc2sc(-c3ccc(NC(=O)CSc4ccc(Cl)cc4)cc3)nn12`, the “hERG current change (%, negative = inhibition) at 10uM” value is reported as -10.2%.
The value for `COCCn1c(=S)[nH]c2cc(C(=O)N3CCCC(C)C3)ccc2c1=O` (stereo not drawn) was 16.2%; that for `Cc1ccc(C)c(S(=O)(=O)N2CCCOC2CNC(=O)C(=O)NCCCn2ccnc2)c1` (stereo not drawn) was 14%.
In the case of `COc1ccc(-c2cnc3nc[nH]c(=O)c3n2)cc1`, the “hERG current change (%, negative = inhibition) at 10uM” value worked out at 4.74%.
The value for `COC(=O)/C(C#N)=C/c1c(-c2ccccc2)nc2n1CCS2` was -8.67%; that for `Nc1nc(CN2CCOCC2)cs1` was 9.15%; that for `O=C(Cn1c(=O)n(Cc2ccco2)c(=O)c2c3c(sc21)CCCC3)Nc1ccccc1` was 18%.
The value for `COc1ccc2oc(=O)c(-c3csc(Nc4ccc(O)cc4)n3)cc2c1` was -2.45%; that for `Cc1ccc(/C=N/n2c(C)cc(C)c(C#N)c2=O)cc1` was -2.69%.
In the case of `O=c1[nH][nH]c2ccccc2c1=O`, the “hERG current change (%, negative = inhibition) at 10uM” value is on record as 19.5%.
The value for `COCCn1c(/C=C/c2ccccc2)nc2ccccc21` was -26.7%.
The value for `COc1ccc(-c2cc(C(F)(F)F)n3nc(C(=O)Nc4cc(C)on4)cc3n2)cc1OC` was 6.7%.
With `COc1ccc(C)cc1S(=O)(=O)N1CCN(S(=O)(=O)c2cc(C(=O)O)ccc2C)CC1`, the “hERG current change (%, negative = inhibition) at 10uM” value worked out at 3.86%.
For `CCCC/C(C)=N/NC(=O)NC1CCCCC1`, the “hERG current change (%, negative = inhibition) at 10uM” value is recorded as 9.48%.
The value for `CCOc1ccc(NS(=O)(=O)c2ccc3c(c2)CCN3C(C)=O)cc1` was 5.55%; that for `Clc1ccc(-c2nnc(-c3ccccc3)o2)cn1` was -2.13%; that for `CCN(CC)c1ccc(CC2C(=O)N(C)C(=O)N(C)C2=O)cc1` was 12.4%.
The value for `Brc1ccc(-c2nnc3sc(CNC4CCCC4)cn23)cc1` was -16.4%; that for `O=C(NCCCc1ccccc1)c1ccc(CS(=O)Cc2ccccc2Cl)o1` (stereo not drawn) was -76.2%; that for `COc1ccc(CCn2c(O)c(C3=c4ccccc4=NC3=O)sc2=S)cc1OC` was 26.6%.
The value for `Cn1c(=O)n(C)c2cc(N3CCOCC3)c(NC(=O)c3ccc(F)cc3)cc21` was -8.15%; that for `O=C(Sc1cccc2cccnc12)c1ccccc1Br` was 0.877%; that for `CCCN1C(=O)c2ccccc2NC1c1ccc(O)c(OCC)c1` (stereo not drawn) was 6.64%.
Turning to `COc1ccc2c(c1)CC/C(=C\C=C\c1ccccc1)C2=O`, the “hERG current change (%, negative = inhibition) at 10uM” value was 12.9%.
Under `COC(=O)Cc1ccc(NC(=S)N2CCN(CCO)CC2)cc1` stands 3.63%; under `C/C(=N\Nc1ccc(C(F)(F)F)cc1[N+](=O)[O-])C(C)C`, 19.6%; under `Cc1ccccc1C(=O)OC1CCN(C)CC1.Cl`, 6.06%.
Under `CCC(Sc1ncccc1C(=O)O)C(=O)N1CCCC1` (stereo not drawn) stands -1.88%; under `CCn1c(SCC(=O)Nc2ccc(C)cc2)nnc1-c1ccccn1`, -59.1%; under `CC(=O)c1cnc2c(-c3ccccc3)c(-c3ccccc3)nn2c1C`, 15.3%.
For the molecule `Cc1cc(Cl)ccc1NC(=S)NCc1ccc(F)cc1`, the “hERG current change (%, negative = inhibition) at 10uM” value was 11%.
The value for `CCOC(=O)c1ccc(NC(=O)c2ccnn2C)cc1` was 4.61%.
Regarding `Cn1nc(C(=O)Nc2nc3ccc(S(C)(=O)=O)cc3s2)ccc1=O`, the “hERG current change (%, negative = inhibition) at 10uM” value is listed as -20.7%.
The value for `CC(C)N1C(=O)CCC1C(=O)NC1CCCC1` (stereo not drawn) was -3.05%; that for `CC(C)c1ccc(NC(=O)CSc2ncccc2C(=O)Oc2cccc([N+](=O)[O-])c2)cc1` was 8.39%.
The value for `CCOc1cccc2c1OC(c1cc(OC)c(OC)c(OC)c1)N1N=C(c3ccc(C)o3)CC21` (stereo not drawn) was 5.07%; that for `CCc1ccccc1N(CC(=O)NCCSCc1ccco1)S(C)(=O)=O` was -15.7%; that for `O=C(COC(=O)c1cn(-c2ccccc2)nc1-c1cccnc1)NC1CC1` was -0.964%.
